Measured values: PubChem BioAssay AID504706 (National Center for Advancing Translational Sciences (NCATS), 2011)
Screen size: about 320,000 compounds; about 200 (0.062%) were called active. Inconclusive means that the source gave no clear call. Such entries were picked first, then a sample of the others. Calls follow the shape of the dose curve; as a rule, active = well fitted activation curve with a large enough effect; inconclusive = small, poorly fitted or top-dose-only effect; inactive = no such curve, though single readings can be large or run the other way. Potencies of inconclusive entries are left out as doubtful fits.

Assay: qHTS assay for re-activators of p53 using a Luc reporter; also: nearly all actives have a fitted effect of over 45% in size; as to activity change, positive = activation: % of control where 0% means no effect
Settings: H1299 p53-A138V BP100-luciferase reporter, luminescence, 24 h; series mostly up to 92.2 µM; activity change, positive = activation: at the top concentration
How it was run: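 p53-null H1299 cells stably carrying temperature-sensitive p53-A138V and a BP100-luciferase reporter were pinned with compounds (4-point, 1:5 series) and held 24 hrs at 37 deg C. Luminescence was read 10 min after detection reagent.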
Potency is read from the fitted curve at half-maximal effect; tags tell the direction and shape of the fitted curve.

SMILES	Potency	activity change, positive = activation
O=C(Cc1ccc(Br)cc1)Nc1ncc([N+](=O)[O-])s1	inconclusive [activator, full curve, poor fit]	
C/C(CC(=O)Nc1cccc(Cl)c1Cl)=N\NC(=O)c1ccccc1N		inactive: 1.2%
CC(Oc1ccc(Cl)cc1Cl)C(=O)Nc1ncccn1 (stereo not given)	inconclusive [activator, single point]	
c1csc(-c2cn3c(n2)SCC3)c1	inconclusive [activator, single point]	
CCCCn1nc(CC(=O)O)c2ccccc2c1=O	inconclusive [activator, single point]	
CC(C)(C)c1ccc(C(=O)Nc2ccc(F)cc2)s1	inconclusive [activator, partial curve, poor fit]	
Cc1ccc(CSc2nnc(-c3ccccn3)n2C)cc1	inconclusive [activator, partial curve, poor fit]	
Fc1ccc(N2CCN(Cc3ccccn3)CC2)cc1		inactive: 0.417%
CC1CCCN(c2nc3ccsc3c(=O)s2)C1 (stereo not given)	inconclusive [activator, full curve, poor fit]	
CCN(CC)S(=O)(=O)c1ccc2oc(SCc3ccc(F)cc3)nc2c1	inconclusive [activator, partial curve, poor fit]	
CCCCC(=O)NC(c1ccc(C(C)C)cc1)c1ccc2cccnc2c1O (stereo not given)	inconclusive [activator, partial curve, poor fit]	
C=C(C)C(=O)OCC(C)C		inactive: 7.6%
O=C(NCC(c1cccs1)N1CCOCC1)c1ccc(Cl)nc1 (stereo not given)		inactive: -0.517%
Cc1occc1C(=O)N/N=C/c1cnn(C)c1C	inconclusive [activator, partial curve, poor fit]	
Clc1ccc(-c2nc(NCCCN3CCOCC3)c3ccccc3n2)cc1		inactive: -5.62%
COc1ccc(OC)c(/C=C/c2ccc3cccc(O)c3n2)c1	inconclusive [activator, full curve]	
CCc1[nH]c(=O)c(C#N)c2c1COC(C)(C)C2		inactive: -5.64%
CCCc1ccc(-c2cc(C(=O)NC3=NCCS3)c3ccccc3n2)cc1	inconclusive [activator, full curve, poor fit]	
COc1cccc(C(=O)NC23CC4CC(CC(C4)C2)C3)c1		inactive: 7.04%
CC(C)Oc1ccc(C(=O)OCC(=O)c2ccc[nH]2)cc1	inconclusive [activator, partial curve, poor fit]	
COc1ccc2[nH]c(=O)c(CN(CCc3ccccc3)Cc3nnnn3CC3CCCO3)cc2c1 (stereo not given)		inactive: 15.9%
CCCC(=O)Nc1ccc2oc(=O)ccc2c1		inactive: 0.246%
CCCCn1nnc(NC(=O)c2ccco2)n1	inconclusive [activator, partial curve, poor fit]	

SMILES	Potency	activity change, positive = activation
N#C/C(=C\c1ccc[nH]1)Sc1nc2ccccc2s1	inconclusive [activator, full curve, poor fit]	
CC(C)N1C(=S)N(Cc2ccco2)C(=O)C1CC(=O)Nc1ccccc1 (stereo not given)		inactive: 2.15%
Cc1ccc(-n2nc3cc(C)c(NC(=S)NC(=O)/C=C/c4ccco4)cc3n2)cc1	inconclusive [activator, partial curve, poor fit]	
O=C(CSc1nnc(NC(=O)c2ccccc2F)s1)NC1CCCC1	inconclusive [activator, partial curve, poor fit]	
CCc1cccc(NC2c3ccccc3C(=O)N2c2ccc(C)cn2)c1 (stereo not given)	inconclusive [activator, full curve, poor fit]	
Cc1[nH]c2ccccc2c1/C=N/Nc1ccc(F)cc1F	inconclusive [activator, full curve, poor fit]	
O=C(OCc1csc(-c2ccccc2)n1)c1cccs1	inconclusive [activator, partial curve, poor fit]	
CC(C)OC(=O)c1cn(-c2ccccc2)nc1-c1ccco1	inconclusive [activator, single point]	
Cc1ccc(-c2cc(C(=O)Nc3cc(C)on3)c3ccccc3n2)cc1		inactive: 6.56%
Cc1cc(=O)oc2cc(OCC(=O)N3c4ccccc4CC3C)ccc12 (stereo not given)		inactive: 3.73%
N=C(N)SCc1nc2ccccc2c(=O)n1-c1ccccc1Cl	inconclusive [activator, partial curve, poor fit]	
COc1ccc(-c2noc(CCCC(=O)N3CCN(c4cc(C)ccc4C)CC3)n2)cc1	inconclusive [activator, partial curve, poor fit]	
Cn1c2ccccc2c(=O)c2cc(NCCCN3CCOCC3)ccc21	inconclusive [activator, partial curve, poor fit]	
NCCCCCc1nnc(SCc2ccc(Cl)c(Cl)c2)o1		inactive: -3.67%
CC(=O)Oc1ccc(C)cc1-n1nc2ccccc2n1	inconclusive [activator, full curve]	
Cc1cccc(NC(=O)C2CCN(S(=O)(=O)c3c(C)noc3/C=C/c3ccco3)CC2)n1		inactive: -2.06%
CCN(CC)S(=O)(=O)c1ccc(N/N=C/c2cc(OC)ccc2O)nc1	inconclusive [activator, single point]	
CCN(CC)S(=O)(=O)c1ccc2c(c1)nc(CCC(=O)Nc1cccc(C(F)(F)F)c1)n2CC	inconclusive [activator, partial curve, poor fit]	
COc1cccc(-c2nn(-c3ccc(C)cc3)cc2C(=O)N(C)CC(=O)Nc2cccc(F)c2)c1		inactive: 13.7%
Cn1c(N=NC(=O)c2ccccc2)c(O)c2ccccc21	inconclusive [activator, partial curve, poor fit]	
COc1cccc(-c2noc(-c3cccnc3)n2)c1	inconclusive [activator, full curve, poor fit]	
COc1ccc(CN=C(C)c2c(C(F)(F)F)[nH]n(-c3nc4ccccc4s3)c2=O)cc1	inconclusive [activator, full curve, poor fit]	
